{
  "source": "paper PMC12136788",
  "binders": {"B1": {"name": "87333194_87339485_488_3pUTR_ENSMUSG00000003382_ENSMUST00000170036|mouse|control|control (ssRNA)", "RNA": "GGGAGUUCUACAGUCCGACGAUCAUGGAACCGGGAGGAGGCUGUUGGCACUGGUGGCGCACUCUGAGGAACCACACCACUCGAGCGAAUGUUGAUGAACGGGUAGUUGGGCAUCACGAGCUUGUUGAAGUUAAACUUGUAAGUCAACAGAGGAUUGAGCAUCA"}, "B2": {"name": "chr19:10591827:10591828:-_ENSMUSG00000024668_ENSMUST00000025570|mus_hu|FALSE|FALSE (ssRNA)", "RNA": "GGGAGUUCUACAGUCCGACGAUCUUCAAUCAUGUCCUUUUGGGAAUCUGUUGGGCUGUCACCUCUGUAGAAGCGUCUGAAUGAUGUCACACUGAGCAAAGGAGACAAUAGGCUGUGCCUUGACAGAGCAAGCAUCAGCGACGACAACAGAGGAUUGAGCAUCA"}, "B3": {"name": "131456618_131456738_1314_CDS_ENSMUSG00000028911_ENSMUST00000053819|mouse|control|control (ssRNA)", "RNA": "GGGAGUUCUACAGUCCGACGAUCUGACACCGAGCGGGACGGUGACCGGGAGUGGUCGGUGUCCUUCUUCUUCUUGCUGCUGCUGCUACUGACUUUGCUGUCCCGCUUGCUGCUGUGUUUUCGGCUGCGCUCGCUCUUGCUGCGCAACAGAGGAUUGAGCAUCA"}, "B4": {"name": "chr2:232320318:232320319:-_ENSG00000115053_ENST00000322723|hu_mus|motif|central (ssRNA)", "RNA": "GGGAGUUCUACAGUCCGACGAUCACUAUUAAAGUCUACAAAACCAAACCCUUUGGAAGAACCAGUUUCCCGAUCAGUGACGGUUCUUGCACGAACAGAGCCCUCAAAUGAUUCUUUUAAGGUCUCUUCAGUGGUAUCCUCAGACAACAGAGGAUUGAGCAUCA"}, "B5": {"name": "56975252_56975372_1549_3pUTR_ENSMUSG00000045589_ENSMUST00000053681|mouse|control|control (ssRNA)", "RNA": "GGGAGUUCUACAGUCCGACGAUCAACCACUCGCUUAUCCCUAGAAUCUCUCCCAUAUUCCCUAUCAACCGUGUGACUAUCUAAAAGCAUUUAUGCGCCACAGAAAAGUUCUCGAGAGCCUGAUGAUACACCGUGACAUCCUAUCAACAGAGGAUUGAGCAUCA"}, "B6": {"name": "chr5:68553883:68553884:+_ENSG00000134058_ENST00000256443|hu_mus|FALSE|FALSE (ssRNA)", "RNA": "GGGAGUUCUACAGUCCGACGAUCGCCCUGAAGAGUCAUCAACAUGUAGGCUUUAAUGUGGGAUGGUGUCAGCACAAGGCUGUUAUCCUUUAUAAUAACCUCGAGGUCAGUUUCCAUAAAAUCAAAGACAAGGCUAAUGUUAGACAACAGAGGAUUGAGCAUCA"}, "B7": {"name": "chr1:163112212:163112213:-_ENSG00000143248_ENST00000313961|hu_hu|hu_hu_hu_mus_False|58_68 (ssRNA)", "RNA": "GGGAGUUCUACAGUCCGACGAUCUUUUAUUAUCAGUAAGAGUGAGUUACAUACUAGGCAAAGUAUUGAAUACAAAAUUCUAAAGAUAAACACUAUUGGUCCAGAAUUUAAAACUUUAUGAGCGAAGUGCUGGCACAGGACUUACAACAGAGGAUUGAGCAUCA"}, "B8": {"name": "chrX:140365825:140365826:-_ENSMUSG00000031285_ENSMUST00000033642|mus_hu|FALSE|FALSE (ssRNA)", "RNA": "GGGAGUUCUACAGUCCGACGAUCCAACCCAUUCAUCCGGGAGCCUCGCAUGUUCCUGGAUGUCUUAUCUCUUUCGUCAAAGUGUCCAAAAUCAAGUUCCAUAUUUUGGUGGAACCUCAGAGACCGGUUUUCUGCUGGUUGGGUCAACAGAGGAUUGAGCAUCA"}, "B9": {"name": "chr7:141445308:141445309:+_ENSG00000106028_ENST00000265304|hu_hu|hu_hu_hu_mus_False|18_88 (ssRNA)", "RNA": "GGGAGUUCUACAGUCCGACGAUCUAUGAUUGUUGUUGCUUGCCGCCUCACAUUAUUUUUAUCCAUGUACUCGCCAUAGUCCACUUUCCCUUCCACAAAUAUACGAGCCCCCUUUUUCACAUAUUGAUAUGCCACAUCUCUGAGCAACAGAGGAUUGAGCAUCA"}, "B10": {"name": "chr16:17484321:17484322:+_ENSMUSG00000006134_ENSMUST00000006293|mus_hu|FALSE|FALSE (ssRNA)", "RNA": "GGGAGUUCUACAGUCCGACGAUCUUUUGGAGUUUUAGAACAGAAUUCUCUCUUCCUUAAGGUUCACUUCCUGUUGUCCAAAGAAAAGCAAGAUGGCAGCUAAGCCACUGCUUUGUGGAACAGCAAACAUGCAGUAUCUCGCCACAACAGAGGAUUGAGCAUCA"}, "B11": {"name": "chr2:55561911:55561912:-_ENSG00000115355_ENST00000336838|hu_mus|FALSE|FALSE (ssRNA)", "RNA": "GGGAGUUCUACAGUCCGACGAUCAUCGAGUUGGGAAUUCUCUUUUUCUAGAGAUUCUAACUGAAAAGUAAGGUUUUUAAAGCUGUCCAAAGUUUUUUUAAAUUUCCUAUUUUCUCUUUCUAGCUCUGAAUUUUCCUGUUCUAACAACAGAGGAUUGAGCAUCA"}, "B12": {"name": "chr7:135123436:135123437:+_ENSMUSG00000030795_ENSMUST00000077609|mus_hu|FALSE|FALSE (ssRNA)", "RNA": "GGGAGUUCUACAGUCCGACGAUCGCCUCCACGACCAUUGCCACCACCCCGAUUAAAGUCUGCCCGGCGAGUAGCAAAUGAGACCUUGAUAGGAUUUCCGGAGAAUUCUUUACCAUCAAACCAGUCAAUAGCUGCUUUAGCUGACAACAGAGGAUUGAGCAUCA"}, "B13": {"name": "chr7:123332509:123332510:-_ENSG00000106299_ENST00000223023|hu_hu|motif|central (ssRNA)", "RNA": "GGGAGUUCUACAGUCCGACGAUCAGAGCAGGACACUGGCCGACUGUUCUGCUCCACUUUUUUUAGCUGAGCACCCUCUCGGAUUUGAUCUAAAAGAGCUGCUUUGUUUCCUGCAGUAGUUGGAACCUGAUGGUCCCCAUCAGACAACAGAGGAUUGAGCAUCA"}, "B14": {"name": "chr11:122930651:122930652:-_ENSG00000109971_ENST00000227378|hu_hu|FALSE|FALSE (ssRNA)", "RNA": "GGGAGUUCUACAGUCCGACGAUCGUUGUCAAAAUCUUCUCCACCCAAGUGGGUGUCUCCAGCUGUAGACUUGACCUCAAAGAUUCCAUCCUCAAUAGUGAGGAUUGACACAUCAAAAGUGCCACCUCCCAGGUCAAAGAUGAGCAACAGAGGAUUGAGCAUCA"}, "B15": {"name": "chr2:217001844:217001845:+_ENSG00000079246_ENST00000392132|hu_hu|hu_hu_hu_mus_False|18_68 (ssRNA)", "RNA": "GGGAGUUCUACAGUCCGACGAUCACCAACUUGAGGAUUAGAUCUUUUGUCAUAAGCAUAUCGGACGAUGGCCACCAUGUUUAACUCAUCCAAAGCAUGAACGAGAGAGGAAAGGGCAACUGCAGCUGCCUCAUCAUCCUUUGCCAACAGAGGAUUGAGCAUCA"}, "B16": {"name": "chr4:142697793:142697794:-_ENSMUSG00000057637_ENSMUST00000105778|mus_mus|motif|central (ssRNA)", "RNA": "GGGAGUUCUACAGUCCGACGAUCUAGGACAGACUGUGUCAGUGGGGUUGGCGACAGCCAUGAGUCCAUGCUUUCGAGGACGGACUGCAGGGUGCGUAGAAGGAGAAAAUUCCAGUUGAAGAAAUAAAAGAGGGGCACGCCAGACAACAGAGGAUUGAGCAUCA"}, "B17": {"name": "chrX:140365796:140365797:-_ENSMUSG00000031285_ENSMUST00000033642|mus_mus|mus_mus_mus_hu_False|8_18 (ssRNA)", "RNA": "GGGAGUUCUACAGUCCGACGAUCCUUCUCAUUACUCAGUGCCUGCAAGGUUCUGGUUCGGUAGAAGCUACAGUGGGCGCUGUGAGUGGGGCUAGGCAACCCAUUCAUCCGGGAGCCUCUCAUAUUUCUAGAUGCUUUAUCUCUCAACAGAGGAUUGAGCAUCA"}, "B18": {"name": "chr5:92956547:92956548:-_ENSG00000113391_ENST00000395965|hu_mus|FALSE|FALSE (ssRNA)", "RNA": "GGGAGUUCUACAGUCCGACGAUCCCGCUGAAGCCAUAUUGCUUUGACAGUUGCACUCAUCUAGAAAUAAUGCAAAACGCUAUUUAGACGGACACAUCACGACCCUGCGCUGGAGAAAGAAAGCAAUCUAAUGGGGGCCAGGAGCAACAGAGGAUUGAGCAUCA"}, "B19": {"name": "79327668_79327788_2640_ncRNA_ENSMUSG00000035835_ENSMUST00000166057|mouse|control|control (ssRNA)", "RNA": "GGGAGUUCUACAGUCCGACGAUCCUGCCAGCCCGCCCACCUGGCGCCUUAGGGUGGAUUCUCUGCUGCCUGCACCUAGGGCCCCUUCACUUGCACCUGGUGGGGGCAGACCCUCCCCAGUGGCCAGGUUGACAGUGGCCACUGCAACAGAGGAUUGAGCAUCA"}, "B20": {"name": "chr7:63234579:63234580:-_ENSMUSG00000047037_ENSMUST00000052204|mus_hu|motif|central (ssRNA)", "RNA": "GGGAGUUCUACAGUCCGACGAUCCGUUUGGGCUGCAGAGGGCUGGCUGGGCCUCUGCUCUGGUGCUGAGCCAUGCUCCCCGCGGUCCACCAGACCACCUGUUACUAUCCAGUCAAUUCUAACACCAUGAUCGAGGACCUCUUCCAACAGAGGAUUGAGCAUCA"}, "B21": {"name": "chr6:114270206:114270207:-_ENSG00000196591_ENST00000368632|hu_mus|FALSE|FALSE (ssRNA)", "RNA": "GGGAGUUCUACAGUCCGACGAUCCACUACUUCUACACAUUUAGCAUGACCUUUGACAGUUAGAUUGAAACAACCAAGCCUGUCCCCAGACAGGGAGUCUGCGCCACACUGCAGCACCACCGCGCUAGGCUGGUACAUCUCCAUCAACAGAGGAUUGAGCAUCA"}, "B22": {"name": "chr13:21172813:21172814:+_ENSG00000032742_ENST00000351808|hu_hu|motif|central (ssRNA)", "RNA": "GGGAGUUCUACAGUCCGACGAUCGAUAUUUCCCAUAUUCAUUUUCAAUAUUCCUGCAUUGCUAAACAUCUUAUUUUUGACGGUAACUUGAUAAGUGUUAAGUGCUUCGGCAUACAUUUCAUUAACUGAAUACUGACUGGCCAACAACAGAGGAUUGAGCAUCA"}},
  "note": "The other results are listed elsewhere or left out.",
  "data": [
    {"target": "T1, UNK ZnF1-3 (human, UniProt Q9C0B0 31-174)", "T1 sequence": "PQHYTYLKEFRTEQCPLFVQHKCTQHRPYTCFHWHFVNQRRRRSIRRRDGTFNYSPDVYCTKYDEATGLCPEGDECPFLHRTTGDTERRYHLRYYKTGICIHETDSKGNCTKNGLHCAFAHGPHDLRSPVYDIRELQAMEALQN", "test": "nsRBNS (natural sequence RNA bind-n-seq); RBNS binding buffer (assumed for nsRBNS): 25 mM Tris pH 7.5, 150 mM KCl, 3 mM MgCl2, 0.01% Triton X-100, 500 ug/ml BSA, 20 U/ml SUPERase-In, 4 C; UNK is unkempt and MSI1 is Musashi-1; names of the RNAs are library labels; protein concentration not given here; high values mean tight binding", "units": {"binding signal": "enrichment R"}, "values": [
      {"binder": "B1", "binding signal": 1.67},
      {"binder": "B2", "binding signal": 1.19},
      {"binder": "B3", "binding signal": 0.379},
      {"binder": "B4", "binding signal": 0.244},
      {"binder": "B5", "binding signal": 1.51},
      {"binder": "B6", "binding signal": 1.23},
      {"binder": "B7", "binding signal": 1.33},
      {"binder": "B8", "binding signal": 0.573},
      {"binder": "B9", "binding signal": 0.921},
      {"binder": "B10", "binding signal": 0.664},
      {"binder": "B11", "binding signal": 0.553},
      {"binder": "B12", "binding signal": 1.36},
      {"binder": "B13", "binding signal": 0.683},
      {"binder": "B14", "binding signal": 1.46},
      {"binder": "B15", "binding signal": 1.6},
      {"binder": "B16", "binding signal": 1.62},
      {"binder": "B17", "binding signal": 0.673},
      {"binder": "B18", "binding signal": 1.3},
      {"binder": "B19", "binding signal": 0.792},
      {"binder": "B20", "binding signal": 0.525},
      {"binder": "B21", "binding signal": 1.17},
      {"binder": "B22", "binding signal": 0.999}
    ]}
  ]
}
